No constants are given. Whether binding was seen depends on the method and setting. For some assays here: Binding seen in cells or lysates may run through a third protein. Some results given as binding are weak or reduced against the parent protein; the word gives no strength. Tags and fused reporters may be left off the sequences shown.

The chains behind the UniProt entries cited, without tags or fusion partners.
UniProt Q94BT6: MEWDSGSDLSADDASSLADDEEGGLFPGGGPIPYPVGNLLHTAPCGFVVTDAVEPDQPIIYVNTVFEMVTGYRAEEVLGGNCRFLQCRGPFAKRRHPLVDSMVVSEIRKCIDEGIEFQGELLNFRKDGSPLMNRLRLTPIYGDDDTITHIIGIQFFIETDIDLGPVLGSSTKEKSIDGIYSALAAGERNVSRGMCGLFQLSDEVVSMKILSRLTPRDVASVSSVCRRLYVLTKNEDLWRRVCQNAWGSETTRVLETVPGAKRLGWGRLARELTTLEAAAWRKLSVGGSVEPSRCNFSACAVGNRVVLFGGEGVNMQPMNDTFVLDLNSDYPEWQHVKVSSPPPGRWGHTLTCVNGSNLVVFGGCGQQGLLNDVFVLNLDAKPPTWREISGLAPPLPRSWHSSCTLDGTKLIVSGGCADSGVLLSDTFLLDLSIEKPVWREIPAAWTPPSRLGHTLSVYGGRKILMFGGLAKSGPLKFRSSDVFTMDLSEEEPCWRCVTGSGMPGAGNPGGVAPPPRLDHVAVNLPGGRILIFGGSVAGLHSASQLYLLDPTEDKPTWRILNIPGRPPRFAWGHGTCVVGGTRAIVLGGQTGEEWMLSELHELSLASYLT
UniProt P43297: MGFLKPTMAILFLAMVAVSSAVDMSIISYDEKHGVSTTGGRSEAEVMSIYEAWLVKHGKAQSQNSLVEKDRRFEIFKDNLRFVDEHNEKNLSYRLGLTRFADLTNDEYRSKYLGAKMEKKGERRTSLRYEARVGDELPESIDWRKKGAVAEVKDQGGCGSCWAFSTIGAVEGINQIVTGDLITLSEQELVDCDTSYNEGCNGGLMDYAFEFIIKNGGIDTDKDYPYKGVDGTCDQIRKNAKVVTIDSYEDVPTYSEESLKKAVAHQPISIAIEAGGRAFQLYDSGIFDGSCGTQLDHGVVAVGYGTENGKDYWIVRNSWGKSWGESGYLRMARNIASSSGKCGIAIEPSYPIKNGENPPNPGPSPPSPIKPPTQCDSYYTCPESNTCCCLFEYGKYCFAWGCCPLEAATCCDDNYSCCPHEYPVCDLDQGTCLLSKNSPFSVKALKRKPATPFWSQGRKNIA

Here are results for eight molecules from paper PMC4792416.

In test [1] the target is T1, Timing of CAB expression 1 (TOC1), GFP-tagged (Arabidopsis thaliana) (UniProt Q9LKL2).
T1 sequence: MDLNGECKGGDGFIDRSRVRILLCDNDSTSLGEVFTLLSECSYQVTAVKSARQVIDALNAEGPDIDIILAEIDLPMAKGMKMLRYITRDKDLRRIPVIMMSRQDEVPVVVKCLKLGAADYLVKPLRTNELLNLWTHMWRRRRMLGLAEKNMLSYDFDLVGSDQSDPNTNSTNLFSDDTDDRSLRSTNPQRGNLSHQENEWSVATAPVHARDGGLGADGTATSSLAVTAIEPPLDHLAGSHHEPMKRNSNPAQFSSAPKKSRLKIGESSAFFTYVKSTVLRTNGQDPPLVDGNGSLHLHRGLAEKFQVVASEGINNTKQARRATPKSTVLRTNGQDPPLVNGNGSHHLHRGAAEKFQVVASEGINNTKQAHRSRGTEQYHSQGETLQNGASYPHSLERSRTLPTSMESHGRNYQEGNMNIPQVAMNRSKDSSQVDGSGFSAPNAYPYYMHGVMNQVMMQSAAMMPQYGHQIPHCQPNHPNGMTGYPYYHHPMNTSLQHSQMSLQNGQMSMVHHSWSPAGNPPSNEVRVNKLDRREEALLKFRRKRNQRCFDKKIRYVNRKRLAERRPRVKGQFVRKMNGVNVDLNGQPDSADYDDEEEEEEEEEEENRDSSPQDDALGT
Put plainly: co-IP; GFP-tagged and HA-tagged proteins co-expressed with p19 in N. benthamiana leaves by agroinfiltration; anti-GFP antibody on protein A Sepharose, 2 h at 4°C; co-IP products detected with anti-HA antibody.

For test [2], the target named is T2, AtTZF4 full length, GAL4 DNA binding domain fusion (pAS1 bait) (Arabidopsis thaliana) (UniProt Q9ZWA1).
T2 sequence: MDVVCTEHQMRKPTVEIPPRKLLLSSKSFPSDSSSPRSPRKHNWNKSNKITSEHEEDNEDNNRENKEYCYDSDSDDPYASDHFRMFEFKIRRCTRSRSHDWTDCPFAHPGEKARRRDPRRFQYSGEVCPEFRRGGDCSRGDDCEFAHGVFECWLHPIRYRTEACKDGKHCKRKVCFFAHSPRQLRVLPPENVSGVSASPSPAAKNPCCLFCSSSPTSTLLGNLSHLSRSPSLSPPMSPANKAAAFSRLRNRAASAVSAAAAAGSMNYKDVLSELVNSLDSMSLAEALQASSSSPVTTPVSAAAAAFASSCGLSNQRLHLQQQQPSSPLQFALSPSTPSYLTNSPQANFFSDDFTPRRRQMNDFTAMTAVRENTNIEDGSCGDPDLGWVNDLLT
Nature of the test: two-hybrid; directed test in yeast PJ69-4A by co-expression of bait (GAL4 BD, pAS1) and prey (GAL4 AD); growth assay.

The target in test [3] is T3, AtTZF6 full length, GAL4 DNA binding domain fusion (pAS1 bait) (Arabidopsis thaliana) (UniProt O65036).
T3 sequence: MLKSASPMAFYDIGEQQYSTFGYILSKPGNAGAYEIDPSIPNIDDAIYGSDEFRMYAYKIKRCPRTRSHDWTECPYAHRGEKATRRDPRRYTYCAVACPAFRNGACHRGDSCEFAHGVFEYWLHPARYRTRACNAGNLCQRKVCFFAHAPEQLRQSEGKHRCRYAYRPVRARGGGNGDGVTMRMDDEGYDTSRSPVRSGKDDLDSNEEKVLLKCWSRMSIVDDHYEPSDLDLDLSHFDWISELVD
Described as above.

The target in test [4] is T4, AtTZF5-CYFP (Arabidopsis thaliana) (UniProt Q9FKW2).
T4 sequence: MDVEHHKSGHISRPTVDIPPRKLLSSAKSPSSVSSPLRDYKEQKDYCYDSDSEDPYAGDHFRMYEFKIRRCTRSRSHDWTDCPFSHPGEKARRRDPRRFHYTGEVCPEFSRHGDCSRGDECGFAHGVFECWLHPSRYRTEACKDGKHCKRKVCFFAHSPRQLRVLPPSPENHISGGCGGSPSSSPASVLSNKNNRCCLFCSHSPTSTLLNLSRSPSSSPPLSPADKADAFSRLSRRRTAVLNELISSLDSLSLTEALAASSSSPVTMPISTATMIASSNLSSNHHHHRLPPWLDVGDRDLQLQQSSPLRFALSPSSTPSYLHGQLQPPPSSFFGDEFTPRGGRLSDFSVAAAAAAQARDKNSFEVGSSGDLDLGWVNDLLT
Put plainly: split reporter; BiFC with CYFP and NYFP fusions, paired constructs co-transformed into Arabidopsis protoplasts; YFP fluorescence by microscopy.

Test [5] deals with T5, AtTZF4, BiFC fusion (Arabidopsis thaliana) (UniProt Q9ZWA1).
T5 sequence: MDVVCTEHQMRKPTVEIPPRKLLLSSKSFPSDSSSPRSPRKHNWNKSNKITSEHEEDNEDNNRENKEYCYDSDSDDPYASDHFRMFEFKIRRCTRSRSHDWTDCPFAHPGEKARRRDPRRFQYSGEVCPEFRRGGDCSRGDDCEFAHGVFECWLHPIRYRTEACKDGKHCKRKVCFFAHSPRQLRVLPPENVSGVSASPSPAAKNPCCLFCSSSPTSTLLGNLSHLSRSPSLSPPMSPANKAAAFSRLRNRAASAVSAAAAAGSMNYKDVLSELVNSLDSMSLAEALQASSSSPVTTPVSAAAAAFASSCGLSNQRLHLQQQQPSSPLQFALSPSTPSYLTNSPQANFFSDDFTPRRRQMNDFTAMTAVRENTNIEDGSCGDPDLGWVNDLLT
Described as above.

Test [6] addresses T6, AtTZF6, BiFC fusion (Arabidopsis thaliana) (UniProt O65036).
T6 sequence: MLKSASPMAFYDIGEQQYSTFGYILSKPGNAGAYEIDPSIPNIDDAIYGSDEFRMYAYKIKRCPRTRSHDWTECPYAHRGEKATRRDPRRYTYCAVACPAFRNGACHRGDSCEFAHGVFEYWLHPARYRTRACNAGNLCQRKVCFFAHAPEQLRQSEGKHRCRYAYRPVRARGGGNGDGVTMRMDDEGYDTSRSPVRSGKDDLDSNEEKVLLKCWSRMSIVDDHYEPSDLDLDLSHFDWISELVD
The description is as above.

Test [7] concerns the target T7, GA stimulated Arabidopsis 6 (GASA6), GFP-tagged (Arabidopsis thaliana) (UniProt Q6NMQ7).
T7 sequence: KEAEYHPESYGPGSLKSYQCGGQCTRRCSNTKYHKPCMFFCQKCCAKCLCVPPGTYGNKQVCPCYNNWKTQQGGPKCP
Nature of the test: co-IP; GFP-tagged and HA-tagged proteins co-expressed with p19 in N. benthamiana leaves by agroinfiltration; anti-GFP antibody on protein A Sepharose, 2 h at 4°C; co-IP products detected with anti-HA antibody.

Test [8] has as its target T8, bZIP1-CYFP (Arabidopsis thaliana) (UniProt Q9FGX2).
T8 sequence: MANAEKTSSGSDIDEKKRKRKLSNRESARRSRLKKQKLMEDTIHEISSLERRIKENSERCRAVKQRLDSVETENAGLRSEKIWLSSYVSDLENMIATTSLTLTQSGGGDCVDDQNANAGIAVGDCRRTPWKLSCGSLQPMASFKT
Nature of the test: split reporter; BiFC with CYFP and NYFP fusions, paired constructs co-transformed into Arabidopsis protoplasts; YFP fluorescence by microscopy.

In the case of ZTL-HA (from UniProt Q94BT6 1-609), in test [1], the binding entry is reported as “binds”.

“Responsive to Dehydration 21A (RD21A) full length, GAL4 activation domain fusion (pAD-GAL4-2.1 prey) (from UniProt P43297 1-462)”: the binding result in test [2] and in test [3] was “binds” in each case.

B1: DCP5, GAL4 activation domain fusion (protein, UniProt Q9C658 1-611)
chain: MAADNTGSKSSSAADSYVGSLISLTSKSEIRYEGILYNINTDESSIGLQNVRSFGTEGRKKDGPQVPPSDKVYEYILFRGTDIKDLQVKASPPVQPPASTINNDPAIIQSHYPSPMPTSGSLPSTASGSLPDISSHNGQPGQHGMGFQNAMPLYQPGGNLGSWGASPQPPMYWQGFYTPPPNGLPQLHQQSLIRPPHGLPMPNSLQQPLQYPNFNTPPPPTGSSSLQGSSLPEAPSSLFPFSTSSQMLAPSSLPFPGLPPVTLSSSLQSTLQSAPSPSLASEMAPPLLSNKAPITAPPTLPQDTNLLSFSLSTTRATEASTGLPLSNKPSVVTGPISPPQTTPLTSAPVAGVSSSISQDKPKPLLVTPGQLLQSGSSAVSLSPPSTNADKDVEVVQVSSSAGLEQSVPVTSEAQPPILPLPSSARPTQKPNGHSFPNHNGYRGRGRGRGRGAGRSHQVMKFTEDFDFTAMNEKFNKDEVWGHLGKSTTLDGDEDDDSPTVDEAELPKIEAKPVYNKDDFFDSLSSNTIDRESQNSRPRFSEQRKLDTETFGEFSRFRGGRGGRGGYGRNNGYSRGGYGGRGYGGYGGRGGGGGGYGYGGRGQGRGVSNRTT
B1: the binding entry in test [2] and in test [3] was “no binding” throughout.

B2: MARD1-NYFP (protein, UniProt Q8LGS1 1-263)
chain: MLRNKPRAAVTTKKQTSLLMADQPPPPKPNTCHCSPSLFSSPKFRFFTSKMMMTPFDSDFSLVSPTSILEANPSIFSSKNPKPVSYFEPTIPNPQRFHSPDVFGLADLVKDGDSNRDHSRKPVNKMVLFGSKLRVQIPSSADFGTKTGIRYPPCQLSPCVQTKVLAVSEIDQTEDYTRVISHGPNPTITHIFDNSVFVEATPCSVPLPQPAMETKSTESFLSRCFTCKKNLDQKQDIYIYRGEKGFCSSECRYQEMLLDQMET
For the molecule B2, the binding result in test [4], in test [5] and in test [6] was “binds” each time.

B3: AtMARD1 full length, HA-tagged (pGWB15) (protein, UniProt Q8LGS1 1-263)
chain: MLRNKPRAAVTTKKQTSLLMADQPPPPKPNTCHCSPSLFSSPKFRFFTSKMMMTPFDSDFSLVSPTSILEANPSIFSSKNPKPVSYFEPTIPNPQRFHSPDVFGLADLVKDGDSNRDHSRKPVNKMVLFGSKLRVQIPSSADFGTKTGIRYPPCQLSPCVQTKVLAVSEIDQTEDYTRVISHGPNPTITHIFDNSVFVEATPCSVPLPQPAMETKSTESFLSRCFTCKKNLDQKQDIYIYRGEKGFCSSECRYQEMLLDQMET
In the case of B3, the binding entry in test [7] is on record as “no binding”.

B4: Mediator of ABA-Regulated Dormancy 1 (MARD1) full length, GAL4 activation domain fusion (pAD-GAL4-2.1 prey) (protein, UniProt Q8LGS1 1-263)
chain: MLRNKPRAAVTTKKQTSLLMADQPPPPKPNTCHCSPSLFSSPKFRFFTSKMMMTPFDSDFSLVSPTSILEANPSIFSSKNPKPVSYFEPTIPNPQRFHSPDVFGLADLVKDGDSNRDHSRKPVNKMVLFGSKLRVQIPSSADFGTKTGIRYPPCQLSPCVQTKVLAVSEIDQTEDYTRVISHGPNPTITHIFDNSVFVEATPCSVPLPQPAMETKSTESFLSRCFTCKKNLDQKQDIYIYRGEKGFCSSECRYQEMLLDQMET
Consider B4, for which the binding entry in test [2] and in test [3] was “binds” in each case.

B5: bZIP25-NYFP (protein, UniProt Q9M1G6 1-403)
chain: MHIVFSVDDLTESFWPVPAPAPSPGSSSTPSPTQNVADGMTRSQSEWAFHRLINELSGSDSSPTTNTIERSPPPVQSLSRLEETVDETEDVVEIQKPQNHRRLPVDDQGKNRNRAPSSDPVDSSAPVVVDPNQYHAILKSKLELACAAVARRVGTVKPEDSSASASNQKQAQGSIVAQTSPGASSVRFSPTTSTQKKPDVPARQTSISSRDDSDDDDLDGDADNGDPTDVKRARRMLSNRESARRSRRRKQEQMNEFDTQVGQLRAEHSTLINRLSDMNHKYDAAAVDNRILRADIETLRTKVKMAEETVKRVTGVNPLHWSRPNMGIPFSNTPSASSSIPPNSNHILKPANSSTNTSAGLAQNQRVETANFLPEQVNREGMQNPFAPDSNLYETLPHWNHKH
Turning to B5, the binding entry in test [8] is reported as “binds”.

B6: polyA-binding protein PABP8, GAL4 activation domain fusion (protein, UniProt Q9FXA2 1-671)
chain: MAQIQHQGQNANGGVAVPGAAAAEAAAAAAGAAAAAAGAAQQGTTSLYVGDLDATVTDSQLFEAFTQAGQVVSVRVCRDMTTRRSLGYGYVNYATPQDASRALNELNFMALNGRAIRVMYSVRDPSLRKSGVGNIFIKNLDKSIDHKALHETFSAFGPILSCKVAVDPSGQSKGYGFVQYDTDEAAQGAIDKLNGMLLNDKQVYVGPFVHKLQRDPSGEKVKFTNVYVKNLSESLSDEELNKVFGEFGVTTSCVIMRDGEGKSKGFGFVNFENSDDAARAVDALNGKTFDDKEWFVGKAQKKSERETELKQKFEQSLKEAADKSQGSNLYVKNLDESVTDDKLREHFAPFGTITSCKVMRDPSGVSRGSGFVAFSTPEEATRAITEMNGKMIVTKPLYVALAQRKEDRKARLQAQFSQMRPVNMPPAVGPRMQMYPPGGPPMGQQLFYGQGPPAMIPQPGFGYQQQLVPGMRPGGSPMPNFFMPMMQQGQQQQQQQQQQQRPGGGRRGALPQPQQPSPMMQQQMHPRGRMYRYPQRDVNTMPGPTQNMLSVPYDVSSGGGVHHRDSPTSQPVPIVALATRLANAAPEQQRTMLGENLYPLVEQLEPESAAKVTGMLLEMDQTEVLHLLESPEALKAKVTEAMDVLRSVAQQQAGGAADQLASLSLGDNIVP
Consider B6, for which the binding entry in test [2] and in test [3] was “no binding” throughout.
